SMILES strings stand for the structures. Among all 48,000 compounds or so, about 1,200 (2.5%) were called active. About 2% were inconclusive and are not listed.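 How the source made its calls: active means activation of at least 60% and not above a set upper limit (about 1 call in 100 departs from these limits); inconclusive means activation of 40% to 60%, or above that upper limit; inactive means activation under 40%.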 This is one part of the list.

UniProt O75388, sequence (O75388 whole entry, looked up): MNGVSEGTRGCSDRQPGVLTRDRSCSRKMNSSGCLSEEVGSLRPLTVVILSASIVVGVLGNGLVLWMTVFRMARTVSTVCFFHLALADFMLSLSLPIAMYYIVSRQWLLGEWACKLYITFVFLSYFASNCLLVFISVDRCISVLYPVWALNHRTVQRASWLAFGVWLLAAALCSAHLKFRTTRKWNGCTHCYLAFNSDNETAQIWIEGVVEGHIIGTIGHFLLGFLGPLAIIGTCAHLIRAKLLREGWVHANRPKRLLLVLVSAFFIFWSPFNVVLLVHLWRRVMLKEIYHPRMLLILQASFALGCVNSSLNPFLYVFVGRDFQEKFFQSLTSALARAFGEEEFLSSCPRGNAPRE

The assay concerns the target Probable G-protein coupled receptor 32 (Homo sapiens) (UniProt O75388). Kind of assay: qHTS for Agonists of Human Resolvin D1 Receptor DRV1. Further: 0% is about no effect. To be noted: CHO-K1 GPR32 beta-arrestin PathHunter luminescence, 90 min; at 76.9 µM; stronger effect = higher value; zero percent set by DMSO-only wells. A digest of the protocol:
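Engineered CHO-K1 line co-expressing GPR32-ProLink and EA-beta-arrestin. Compound treatment lasted 90 min at 37 °C. Luminescence was recorded after 1 h with substrate at ambient temperature, relative to DMSO basal wells.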
On the technique in general: qHTS replaces the single test concentration by a dilution series.
Regarding `O=C(Cn1c(=O)n(CCCS(=O)(=O)C2CCCCC2)c(=O)c2ccccc21)Nc1ccccc1F`, the activation is inactive: -20.4%.
Regarding `Cc1nn2c3c(cnc2c1-c1ccc(F)cc1)C(=O)CC(c1ccccc1)C3` (centres undefined), the activation is inactive: -5.68%.
For `Cc1cc(C(=O)Nc2cccc(C(F)(F)F)c2)c2c(C)nn(-c3cccc(F)c3)c2n1`, the activation is inactive: 10%.
Take `COc1cccc(CNC(=O)C2CCCN(S(=O)(=O)c3ccc4c(ccn4C)c3)C2)c1OC` (centres undefined): the activation is inactive: 4.41%.
To `CCCN1CCN(CCNC(=O)Nc2cc(Cl)c(OC)cc2OC)CC1` belongs inactive: 10.5%; to `Cc1cc(C)c(-c2csc(-c3cc4ccccc4oc3=O)n2)cc1C`, inactive: -4.05%; to `O=S(=O)(NCCc1csc2nc(-c3ccc(F)cc3)nn12)c1ccc2c(c1)OCCO2`, inactive: 11.6%.
Consider `CC(=O)Nc1ccc(NC(=O)CC(C)n2ccc(C)n2)cc1` (centres undefined), for which the activation is inactive: 1.42%.
Regarding `COc1ccc(-c2cc(C(=O)Oc3ccc(C#N)cc3)no2)cc1`, the activation is inactive: -7.44%.
`COc1ccc(CNC(=O)C(CC(C)C)NS(=O)(=O)c2ccc3c(c2)CCN3C(C)=O)cc1` (centres undefined): the activation is inactive: 22.3%.
The figure for `O=C(NCCOCCn1c(=O)oc2ccccc21)Nc1ccc(F)cc1F` is inactive: 24.4%; for `COc1ccc(Nc2nnc(-n3nc(C)cc3C)c3ccccc23)cc1` it is inactive: 0.996%.
As for `CNC(=O)c1c(I)c(NC(=O)CCCCC(=O)Nc2c(I)c(C(=O)O)c(I)c(C(=O)NC)c2I)c(I)c(C(=O)O)c1I`, the activation is inactive: 5.06%.
The figure for `CCCc1cc(=O)[nH]c(SCc2nc(-c3ccccc3)no2)n1` is inactive: -9.96%; for `O=S1(=O)c2ccccc2N(Cc2ccc(F)cc2)c2ccccc21` it is inactive: -19.3%.
For the molecule `CCCSCCCNC(=O)c1sc2nc(C)cc(C)c2c1-n1cccc1`, the activation is inactive: 0.876%.
To `COc1cccc(NCc2nnc3n2CCCCC3)c1` belongs inactive: 9.18%; to `Cc1ccc(-c2noc(-c3cccnc3N(C)Cc3ccc(Cl)cc3)n2)cc1`, inactive: -15.7%; to `COc1cc(Br)cc2cc(S(=O)(=O)c3ccccc3)c(=O)oc12`, inactive: -4.99%.
On to `COc1ccc(CNC(=O)c2cc3c(=O)n(Cc4ccc(OC)cc4)ccc3nc2C)cc1`, for which the activation was inactive: -10.8%.
To `Cc1cccc(NC(=O)CSc2nc3ccc(NC(=O)CCc4ccccc4)cc3s2)c1` belongs inactive: 29.9%; to `Cc1ccc(-c2nc(CS(=O)(=O)CC(=O)N3CCN(c4ccccc4)CC3)c(C)o2)cc1`, inactive: 16.9%; to `CCOc1ccc(NC(=O)CN(c2ccc(C)cc2)S(=O)(=O)c2cccs2)cc1`, inactive: -9.92%.
To `CCCOc1ccc(CN2C(=O)C(=O)c3cccc(C)c32)cc1` belongs inactive: -59.4%.

The values above are taken from PubChem BioAssay AID1346428 (National Center for Advancing Translational Sciences (NCATS), 2018).
